Laboratory results: PubChem BioAssay AID360 (National Center for Advancing Translational Sciences (NCATS), 2006)
Screen size: about 48,000 compounds; about 550 (1.1%) were called active. Another 4% or so got no clear call; they are omitted. Rule as the data show it: active = potency below about 15 µM; inconclusive = mostly about 16 µM to 33 µM; inactive = weaker than that. This is one part of the list.
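Also: the screen sought inhibitors.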
Potency is read from the fitted curve at half-maximal effect.

The compounds below were run against Lysosomal acid glucosylceramidase (Homo sapiens) (UniProt P04062) (assay: Glucocerebrosidase). Conditions: purified enzyme, resorufin glucoside fluorescence (screen aimed at inhibitors), 20 min; series mostly up to 77 µM.
UniProt P04062, sequence (P04062 whole entry, looked up): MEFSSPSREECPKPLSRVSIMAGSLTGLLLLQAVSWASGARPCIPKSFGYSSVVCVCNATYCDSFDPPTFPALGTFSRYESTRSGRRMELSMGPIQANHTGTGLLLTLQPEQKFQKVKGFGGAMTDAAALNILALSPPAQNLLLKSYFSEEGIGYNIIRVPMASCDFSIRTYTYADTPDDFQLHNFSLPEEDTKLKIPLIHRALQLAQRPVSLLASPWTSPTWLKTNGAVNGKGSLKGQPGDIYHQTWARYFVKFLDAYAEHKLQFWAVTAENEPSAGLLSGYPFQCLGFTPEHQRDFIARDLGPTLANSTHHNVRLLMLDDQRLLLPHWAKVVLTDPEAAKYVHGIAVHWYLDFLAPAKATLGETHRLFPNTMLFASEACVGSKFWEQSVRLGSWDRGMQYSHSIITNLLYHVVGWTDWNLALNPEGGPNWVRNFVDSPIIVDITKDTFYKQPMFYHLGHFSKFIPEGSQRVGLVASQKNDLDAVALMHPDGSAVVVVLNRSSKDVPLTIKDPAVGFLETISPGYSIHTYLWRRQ
Method in brief: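 Compounds titrated against 0.2 nM normal enzyme, 30 uM resorufin beta-D-glucopyranoside substrate, citrate/phosphate buffer with taurocholate and tween-20, pH 5.9. Reaction ran 20 min at room temperature; fluorescence (Ex 548/Em 600) gave AC50.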
In the case of `Cc1ccc(Cl)c(OCC(O)CN(CCO)CCO)c1` (stereo not given), the Potency is reported as inactive: > 76.9 µM. In the case of `O=S(=O)(c1ccc(Br)c2nsnc12)N1CCOCC1`, the Potency is reported as inactive: > 76.9 µM. With `CN(C)c1ccc(NC(=O)Cn2c(=O)n(Cc3ccccc3)c(=O)c3ccccc32)cc1` the Potency was inactive: > 76.9 µM. In the case of `CC(=O)OCCN1C(=O)c2cccnc2C1=O`, the Potency is reported as inactive: > 76.9 µM. `Cc1ccc2c(c1)c1c3n2CCN(C(=O)CN2CCN(C)CC2)C3CCC1` (stereo not given) was tested, and the Potency was inactive: > 76.9 µM. With `O=c1cc(-c2c(F)c(F)c(F)c(F)c2F)oc2c(F)c(F)c(F)c(F)c12` the Potency was inactive: > 76.9 µM. With `Cc1c(C2Nc3ccccc3NC3=C2C(=O)CC(C)(C)C3)cnn1C` (stereo not given) the Potency was inactive: > 76.9 µM. With `CCOc1ccc(N2C(=O)NC(Cc3c[nH]c4ccccc34)C2=O)cc1` (stereo not given) the Potency was inactive: > 76.9 µM. `CCN(CC(=O)Nc1ccccc1OC)C(=O)C1CC2C=CC1C2` (stereo not given) was tested, and the Potency was inactive: > 76.9 µM. In the case of `COc1ccc(C2C(C(=O)O)CC(=O)N2C2CCCCC2)cc1` (stereo not given), the Potency is reported as inactive: > 76.9 µM. With `CCN(CCCNC(=O)CNC(=O)Cn1cnc2ccccc2c1=O)c1cccc(C)c1` the Potency was inactive: > 76.9 µM. With `Cc1nn(Cc2ccc(F)cc2)c(C)c1NC(=O)c1cc(-c2ccco2)on1` the Potency was inactive: > 76.9 µM. For `O=C(C1COc2ccccc2O1)N1CCc2ccccc21` (stereo not given), the Potency was inactive: > 76.9 µM. In the case of `C=CCn1c(SCc2ccc(C#N)cc2)nnc1-c1cccc(OC)c1`, the Potency is reported as inactive: > 76.9 µM. With `Nc1sccc1C(=O)c1ccccc1` the Potency was inactive: > 76.9 µM. For `CC1(C)Cc2nc3oc4c(=S)nc[nH]c4c3cc2CO1`, the Potency was inactive: > 76.9 µM. With `CC(=O)Oc1cc2oc(=O)c3c(c2cc1Cl)CCC3` the Potency was inactive: > 76.9 µM. `CCC(=O)N1c2ccccc2NC2=C(C(=O)CCC2)C1c1cccnc1` (stereo not given) was tested, and the Potency was inactive: > 76.9 µM. With `Cc1cc(C)nc(N2CCC(C(=O)Nc3nnc(C)s3)CC2)n1` the Potency was active: 3.03 µM. With `COc1cccc2cc(C(=O)N3CCc4ccccc43)c(=O)oc12` the Potency was inactive: > 76.9 µM. For `CC1(C)C(=O)Nc2ccccc2N1C(=O)COC(=O)Cn1cnc2ccccc2c1=O`, the Potency was inactive: > 76.9 µM. In the case of `Cc1ccc(NC2c3ncccc3C(=O)N2Cc2ccc(F)cc2)cc1` (stereo not given), the Potency is reported as inactive: > 76.9 µM. For `Cc1ccc(C2CC(=O)Nc3cc4c(cc32)OCCO4)s1` (stereo not given), the Potency was inactive: > 76.9 µM. For `COc1ccc(C2C=C(c3ccc(Br)cc3)Nc3nc(N4C(=O)CCC4=O)nn32)cc1` (stereo not given), the Potency was inactive: > 76.9 µM. In the case of `CCCCN1C(=O)C(NC(C)=O)c2ccccc21` (stereo not given), the Potency is reported as inactive: > 76.9 µM. In the case of `COC(=O)c1ccc(Cn2cnc3c(cnn3-c3ccc(F)cc3)c2=O)o1`, the Potency is reported as inactive: > 76.9 µM. For `CCSc1nnc(NC(=O)c2cc(C)on2)s1`, the Potency was inactive: > 76.9 µM. For `O=C(NCc1ccccc1)N(Cc1nc2ccccc2c(=O)[nH]1)C1CCCC1`, the Potency was inactive: > 76.9 µM. In the case of `COC(=O)c1sc(NC(=O)CSc2nnnn2-c2ccc(C)cc2C)nc1C`, the Potency is reported as inactive: > 76.9 µM. For `CCCCCn1c(Sc2ncccn2)nc2c1c(=O)[nH]c(=O)n2C`, the Potency was inactive: > 76.9 µM. In the case of `COc1ccc(N2CCN(C(c3ccccc3OC)c3nnnn3Cc3ccco3)CC2)cc1` (stereo not given), the Potency is reported as inactive: > 76.9 µM. `COc1cc(OC)c2c(C)cc(=O)oc2c1` was tested, and the Potency was inactive: > 76.9 µM. In the case of `CC1CC(C)CN(c2oc(-c3ccco3)nc2C#N)C1` (stereo not given), the Potency is reported as inactive: > 76.9 µM. `Cc1ccc(Cn2nnc3c(=O)[nH]c(C(=O)NCc4ccco4)nc32)cc1` was tested, and the Potency was inactive: > 76.9 µM. For `Cc1cc(C)nc(-n2nc(C)cc2NC(=O)c2ccc(Br)o2)n1`, the Potency was inactive: > 76.9 µM. With `C=CCn1c(NCc2ccc(N(C)C)cc2)nc2ccccc21` the Potency was inactive: > 76.9 µM. With `OCCN1CCN(CC(O)COc2ccc3ccccc3c2)CC1` (stereo not given) the Potency was inactive: > 76.9 µM. In the case of `CCOc1ccccc1C(=O)NC1CC2CCCC(C1)N2C1CC1` (stereo not given), the Potency is reported as inactive: > 76.9 µM. In the case of `CCC12CN3CC(CC)(CN(C1)C3c1ccc(OC(C)C)cc1)C2=O` (stereo not given), the Potency is reported as active: 4.26 µM. With `O=C(O)CC(c1ccccc1)c1ccccc1` the Potency was inactive: > 76.9 µM. `COc1cc(CCC(=O)OCn2nnc3ccccc3c2=O)cc(OC)c1OC` was tested, and the Potency was “inactive”. In the case of `Clc1ccc(Cl)c(-c2nn3c(Cn4cnc5ccccc54)nnc3s2)c1`, the Potency is reported as inactive: > 76.9 µM. `Cc1cc(C)c2c(N=CN(C)C)c(C(=O)N3CCN(c4ncccn4)CC3)sc2n1` was tested, and the Potency was inactive: > 76.9 µM. In the case of `c1ccc(Cc2nn3c(-c4ccncc4)nnc3s2)cc1`, the Potency is reported as inactive: > 76.9 µM. `CCn1c(CSc2nc(C)cc(C)n2)nnc1SCC(=O)Nc1ccccc1` was tested, and the Potency was inactive: > 76.9 µM. With `S=C(c1ccc(N2CCOCC2)cc1)N1CCCCC1` the Potency was inactive: > 76.9 µM. With `Cn1c(=O)c2c(-c3ccccc3)n(N3CCOCC3)cc2n(C)c1=O` the Potency was inactive: > 76.9 µM. With `COC(=O)c1ccccc1NC(=O)C1CCN(S(=O)(=O)c2cc(C)ccc2OC)CC1` the Potency was inactive: > 76.9 µM. In the case of `CN(C(=O)c1ccc(NC(=O)C2CC=CCC2C(=O)O)cc1)c1ccccc1` (stereo not given), the Potency is reported as inactive: > 76.9 µM. For `CCOC(=O)N1CCC(NC(=O)c2cccnc2SC)CC1`, the Potency was inactive: > 76.9 µM. For `CCOC(=O)N1CCN(CC(=O)Nc2c(C(=O)OC)[nH]c3cccc(Cl)c23)CC1`, the Potency was inactive: > 76.9 µM. `Nc1nonc1C(=Nc1ccccc1)NO` was tested, and the Potency was inactive: > 76.9 µM. `CN(C)S(=O)(=O)NC(c1ccccc1)c1ccccc1` was tested, and the Potency was inactive: > 76.9 µM. For `O=C(N1CCCCC1)N1CCCN(C(=O)N2CCCCC2)CC1`, the Potency was inactive: > 76.9 µM. For `CCn1c(COc2ccc3c(c2)CCCC3)nnc1SCC(=O)Nc1nccs1`, the Potency was inactive: > 76.9 µM. `CC(C)(C)c1ccc(OCC(=O)O)cc1` was tested, and the Potency was inactive: > 76.9 µM. For `CCOC(=O)N1CCC(NC(=O)c2sc(-n3cccc3)nc2C)CC1`, the Potency was inactive: > 76.9 µM. `COc1cccc(C2=CC(c3cccc(OC)c3OC(F)F)n3nnnc3N2)c1` (stereo not given) was tested, and the Potency was inactive: > 76.9 µM. In the case of `O=C(C1CC1)N1CCc2cc(S(=O)(=O)N(CCO)Cc3ccccc3)ccc21`, the Potency is reported as inactive: > 76.9 µM. For `COc1ccc(CNC(=O)COC(=O)c2n[nH]c3ccccc23)cc1`, the Potency was inactive: > 76.9 µM. For `COCC(C)NC(=O)c1noc2c1CCc1cc(OC)ccc1-2` (stereo not given), the Potency was inactive: > 76.9 µM. `CCCOC(=O)Cc1n[nH]c(=O)[nH]c1=O` was tested, and the Potency was inactive: > 76.9 µM. In the case of `CCC(C)(C)NC(=O)C(c1cccn1C)N(Cc1ccccc1)C(=O)Cn1nnc2ccccc21` (stereo not given), the Potency is reported as inactive: > 76.9 µM. For `CCOC(=O)c1nn(-c2ccccc2)c(C#N)c1NC(=O)c1nn(CC)cc1Br`, the Potency was inactive: > 76.9 µM. In the case of `O=C(CN1CCOCC1)N1CCN(C(=O)CN2CCOCC2)CC1`, the Potency is reported as inactive: > 76.9 µM. In the case of `Cc1cc(C)c(C(=O)CSc2nnc(-c3ccccc3Br)o2)cc1C`, the Potency is reported as inactive: > 76.9 µM. With `CCc1nnc(NC(=O)CSc2nnc(COc3ccccc3)n2-c2ccc(C)cc2)s1` the Potency was inactive: > 76.9 µM. With `Cc1ccc2nc(SCC(=O)Nc3c(C)n(C)n(-c4ccccc4)c3=O)[nH]c2c1` the Potency was inactive: > 76.9 µM. `CCOC(=O)N1CCC(N(C(=O)Nc2ccc(Cl)c(Cl)c2)C(C)CC)CC1` (stereo not given) was tested, and the Potency was inactive: > 76.9 µM. `CCc1ccc2[nH]c(=O)c(CN(CCO)C(=O)NCc3ccccc3)cc2c1` was tested, and the Potency was inactive: > 76.9 µM. For `O=C(Cn1nnc(-c2ccccc2F)n1)Nc1ccc(C(=O)N2CCOCC2)cc1`, the Potency was inactive: > 76.9 µM. `CCOc1ccccc1N(CC(=O)NC(C)(C)C)C(=O)c1ccc(CN2CCOCC2)o1` was tested, and the Potency was inactive: > 76.9 µM. In the case of `CCc1ccc(N2CC(C(=O)NCc3ccc4c(c3)OCO4)CC2=O)cc1` (stereo not given), the Potency is reported as inactive: > 76.9 µM. For `COc1ccc(-c2cc(C(=O)NC(C)C)no2)cc1`, the Potency was inactive: > 76.9 µM. For `CS(=O)(=O)c1ccc(Cl)c(S(=O)(=O)NCc2ccccc2)c1`, the Potency was inactive: > 76.9 µM. With `CCOC(=O)N1C(=O)c2cc(OC)ccc2S1(=O)=O` the Potency was inactive: > 76.9 µM. For `CCOCCn1c(N(C)Cc2ccccc2)nc2c1c(=O)[nH]c(=O)n2C`, the Potency was inactive: > 76.9 µM. `COc1ccc(NC(=O)CCc2ccccc2)cc1NC(=O)c1ccco1` was tested, and the Potency was inactive: > 76.9 µM. With `Cc1nn(CC(=O)Nc2ccccn2)c(=O)c2ccccc12` the Potency was inactive: > 76.9 µM. In the case of `CCCN1C(=O)NC2(O)C(=O)c3ccccc3C12O` (stereo not given), the Potency is reported as inactive: > 76.9 µM. For `COc1ccc(C2NCCC3(O)CCCCC23)c(OC)c1OC` (stereo not given), the Potency was inactive: > 76.9 µM. In the case of `COc1ccc(N2CCN(C(=O)CCNS(=O)(=O)c3ccc4c(c3)CCC(=O)N4)CC2)cc1`, the Potency is reported as inactive: > 76.9 µM. For `CCC(C)(C(=O)Nc1ccc2c(c1)OCCO2)N(C(C)=O)c1ccc(C(N)=O)cc1` (stereo not given), the Potency was inactive: > 76.9 µM. In the case of `COc1ccc(S(=O)(=O)N(C)CC(=O)NC2CC2)cc1`, the Potency is reported as inactive: > 76.9 µM. In the case of `Cc1nnc(Oc2ccccc2)c2ccccc12`, the Potency is reported as inactive: > 76.9 µM. For `COC(=O)c1cccc(NC(=O)CSc2nnc(COc3ccc(C#N)cc3)n2-c2ccccc2)c1`, the Potency was inactive: > 15.4 µM. `c1cncc(-c2nnc(SCc3nc4ccccc4[nH]3)o2)c1` was tested, and the Potency was inactive: > 76.9 µM. With `CCCn1nnc(NC(=O)c2ccc(-c3ccccc3)cc2)n1` the Potency was inactive: > 76.9 µM. In the case of `COC(=O)c1cccc(NC(=O)CN(c2ccc3c(c2)OCO3)S(C)(=O)=O)c1C`, the Potency is reported as inactive: > 76.9 µM. For `CCN(CC)S(=O)(=O)c1cccc(-c2nnc(SCC(=O)c3ccc(Cl)s3)n2C)c1`, the Potency was inactive: > 76.9 µM.
